Drawing on patent EP4793288A1, this text covers absorbance (OD450) for one molecule.

This test deals with Recombinant HLA-G antigen (human) (UniProt P17693). Put plainly: monoclonal phage ELISA, Fab on phage, anti-M13 HRP (selection threshold). On the technique in general: ELISA stands for enzyme-linked immunosorbent assay.

B1: 2F1 (Fab clone displayed on phage) (Fab, V domains shown)
VH: EVQLVESGGGLVQPGGSLRLSCAASGFTFSSYAMSWVRQAPGKGLEWVSRISGSGGYIYYADSVKGRFTISRDNSKNTLYLQMNSLRAEDTAVYYCAKEGTSSYRGWMDVWGQGTLVTVSS
VL: [about 100 residues omitted]WTFGQGTKVEIK
Consider B1, for which the absorbance (OD450) is over 0.4 OD450.
